Results from PubChem BioAssay (NCI).
Where a structure was tested more than once in an assay, its records may differ in their call.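 A percent growth of 40 corresponds to 60% growth inhibition; 0 means no net growth; -100 means all cells died. Active threshold: below 10.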 For part of its entries the source gives two or more results. The other results are left out here. There may be further records. The values listed for one entry are repeated measurements (runs, samples, wells, individuals or studies). A tag in brackets gives the origin of a value. The letters are not those of the source and start again with each entry. Dates in brackets are months of testing.

Experiments:
Experiment in all cases: NCI-60 one-dose screen, 48 h (100 = growth as untreated, 0 = no growth, -100 = all killed)
Settings in all cases: 100 µM
UACC-62 melanoma = test system: UACC-62 melanoma
TK-10 renal = test system: TK-10 renal
MCF7 breast = test system: MCF7 breast

COC(=O)C1=COC(C)C2CN3CCc4c([nH]c5cc(OC)c(OC)cc45)C3CC12 (stereo not drawn)
growth (UACC-62 melanoma): inactive: 10.7% [sample A, 1996-05] and active: -88.8% [sample A, 1996-05] and inactive: 73.6%, 10% [sample B, 1996-05] | growth (TK-10 renal): inactive: 52% [sample A, 1996-05] and active: -80.6% [sample A, 1996-05] and inactive: 107%, 30.7% [sample B, 1996-05] | growth (MCF7 breast): active: -12.4%, -60.4% [sample A, 1996-05] and inactive: 75.6% [sample B, 1996-05] and active: 3.42% [sample B, 1996-05]
